Laboratory results: the RNAGym collection of RNA variant scans (doi:10.1093/nar/gkz1192)
The source gives no read counts; variants with many changes may rest on few reads.

B1: CPEB3 Ribozyme (parent)
chain: UAACAGGGGGCCACAGCAGAAGCGUUCACGUCGCAGCCCCUGUCAGAUUCUGGUGAAUCUGCGAAUUCUGCUGUAUAUCUC

Variants of: B1
Test: self-cleavage, relative activity (ratio to wild type); higher = more cleavage; in vitro, sequencing
In short: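 CPEB3 self-cleaving ribozyme mutant libraries were made by rounds of error-prone PCR, barcoded, and transcribed in vitro with T7 RNA polymerase for 5 hours at 37°C. Cleavage occurred during transcription and a 15 min DNase I step before EDTA stop. RNAs were reverse transcribed with template switching and Illumina-sequenced, with DNA sequencing mapping barcodes to variants. Relative activity is the variant's cleaved/total read fraction divided by wild type's (minimum 5 reads), averaged across three batches.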

| Variant | self-cleavage |
| --- | --- |
| A3G U41A A56C A64G U74C | 0.15 |
| A3U A18G A35G U41C U66C | 0.33 |
| A3G G24U U69C | 0.16 |
| A3U A5G U26C A45G U74A | 0.54 |
| A3U A13U A47G G73U | 1.22 |
| A3G U31G A47G A57G | 0.37 |
| A3G G30A U58A U78C | 0.2 |
| A3G G10U A15G A64U U66C | 0.04 |
| A3G G42A C59G U72C | 0.3 |
| A3U A13U U58A A64U | 0.2 |
| A3G U54A U60A | 0.54 |
| A3U A5C A20U G73A C81U | 0.31 |
| A3G U41C U54C A64U U69G | 0.17 |
| A3G U54C U69C | 0.46 |
| A3U A15U U25C A45G U48C G53U G61C | 0.18 |
| A3U A5G A18G U76C | 0.81 |
| A3U A13G C17G U25C U26C | 0.53 |
| A3U A20G G22C U26A U72C | 0.06 |
| A3G U25G U72A U74A | 0.21 |
| A3G U48C U74A | 1.11 |
| A3G U41C C59A | 0.19 |
| A3G U43C U58G A65C | 0.07 |
| A3G G16A G52A G55C A75G U80C | 0.28 |
| A3G G10C A15U U54A | 0.08 |

| Variant | self-cleavage |
| --- | --- |
| A3G U26A A47G | 0.79 |
| A3U A5C G6A A35G U48C | 0.06 |
| A3G U51G A57G | 0.77 |
| A3G U67A U78C | 0.49 |
| A3U A13G A35G G52U | 1.15 |
| A3U A5G U60C A65G U80C | 0.11 |
| A3U A20G U25C U43C | 0.4 |
| A3U A18U U49C | 0.28 |
| A3G U49C U60C | 0.32 |
| A3G G42A A75G | 0.12 |
| A3G U51C U72A | 0.8 |
| A3G U51C U72G | 1.17 |
| A3G G10A U51C U54C A56G U60A G70C | 0.25 |
| A3G U25C A45U U69C G70C | 0.04 |
| A3U A20G A75U | 1.1 |
| A3G G33U C37U | 0.42 |
| A3G G19U U51A U69G | 0.29 |
| A3G U25C U31C C71G | 0.05 |
| A3G U41A A56U U69C | 0.31 |
| A3G U26C U58C U78C | 0.05 |
| A3U A18U A20G U58A U66C C79A | 0.07 |
| A3G G10A G36U U60C G61A G63C U72C | 0.09 |
| A3U A13G U26C G55A | 0.28 |
| A3G U41A U67C A77G U78G | 0.02 |

| Variant | self-cleavage |
| --- | --- |
| A3G U26C U66C C81A | 0.43 |
| A3G U41C A56U U69A U72A | 0.23 |
| A3G U31A A35C | 0.54 |
| A3G U31A A35G | 1.13 |
| A3G U51C U54C U76A U80C | 1.25 |
| A3G U48C U78C | 0.79 |
| A3G G42A U51C U58C | 0.14 |
| A3G U41C U51A A77G | 1.14 |
| A3G U58C G63A U72C | 0.49 |
| A3G U31C U48C A56U U60G A65G | 0.08 |
| A3G U26C U60C A64G | 0.3 |
| A3G U54C A64G U69A | 0.36 |
| A3U A15U U69C U74C U80C | 0.39 |
| A3G U31A G33C A65G | 0.11 |
| A3G U54A A56U | 0.99 |
| A3G U41A C44A A56G U58C U72A U80A | 0.04 |
| A3G U41C U60A | 0.41 |
| A3G U43C U60A U69C | 0.6 |
| A3G U60A A77U | 0.52 |
| A3G U69C U74C | 0.39 |
| A3G U25A U72C | 0.17 |
| A3G G9U U51C U67C | 0.22 |
| A3G U58C U66C | 0.21 |
| A3G U43C A57U | 0.35 |

| Variant | self-cleavage |
| --- | --- |
| A3U A5G U25C U41C U49C G63A | 0.46 |
| A3G G36A A65G | 0.39 |
| A3G G10A A20G G52C A57U | 0.06 |
| A3G U31A G46A U49A U72C U78A | 0.23 |
| A3U A20G A21U A64G | 0.25 |
| A3U A15U U31A C79A | 0.91 |
| A3U A13G U31C A64G A65U | 0.23 |
| A3G U26C U49C | 0.34 |
| A3G U25A U48C A57G G73A | 0.19 |
| A3G U25C A75U | 0.54 |
| A3U A5G C17G U26C | 0.68 |
| A3U A13U U51A U58A | 0.43 |
| A3G U31C U41A U51C G53U | 0.44 |
| A3G U25A G53C | 0.59 |
| A3G U58C U72C | 0.4 |
| A3U A13U A15G | 0.69 |
| A3G G19C G55C A64G | 0.29 |
| A3G U25C C27A U54G G63A | 0.08 |
| A3U A15G A45G A64U | 0.05 |
| A3G U26C A35G A47G U69C | 0.66 |
| A3G U54C U67C U80C | 0.34 |
| A3G U41C A65G U66A | 0.34 |
| A3G U41C U54A U72A | 1.01 |
| A3U A5G A15G A18U U25A U43A U72C | 0.11 |

| Variant | self-cleavage |
| --- | --- |
| A3U A18G C32U A64U | 0.06 |
| A3G U31G A77G | 0.79 |
| A3U A5G G7U A18G A28U A35G A65G | 0.29 |
| A3U A5U A13U U51C U66C | 0.76 |
| A3G U60A U74C | 0.89 |
| A3G U31A U43A A56G A64G | 0.61 |
| A3U A20U A28G U72A A75G | 0.16 |
| A3G G36C U69A | 0.31 |
| A3G U51A U67A U72C | 0.61 |
| A3G G30A C37G | 0.67 |
| A3G U25C C39U C40U U60A | 0.19 |
| A3U A13G A45G U58C A77U | 0.11 |
| A3U A18G U48C U67C | 0.24 |
| A3G G24U A35G | 0.64 |
| A3G U31G A65G U66A | 0.17 |
| A3U A5G C32U C37U U43C U76A | 0.06 |
| A3G U25C U26A A56G U72C | 0.57 |
| A3G G33A C71U U78C | 0.1 |
| A3G U48C U60C | 0.34 |
| A3U A13G C27G A56U U78C U80C | 0.05 |
| A3U A5U U25C U41C | 0.12 |
| A3G G24A U72G | 0.36 |
| A3G U25C U51C A64U U74C | 0.09 |
| A3U A15G U49C U74C | 0.42 |

| Variant | self-cleavage |
| --- | --- |
| A3G U31A U48C U49C U66A A77G | 0.08 |
| A3G G19C A21G C40U | 0.06 |
| A3U A5G C11A U58A U69A U76A | 0.2 |
| A3G U43A U80C | 1.09 |
| A3G G36A C38G A45U A56U A57G U72C | 0.11 |
| A3G G33A C71G | 0.06 |
| A3G G33A A57G A65G | 0.21 |
| A3G U41C A47U U51C | 0.25 |
| A3G G24A A35G A45G A64G | 0.31 |
| A3U A13C A64G U69C | 0.4 |
| A3G U26A G33A A47G A56U | 0.03 |
| A3G G36A U69C | 0.13 |
| A3G U31C U80C | 0.98 |
| A3G U60A U66A | 0.26 |
| A3G U69A C71U | 0.38 |
| A3G U54C U78G | 0.97 |
| A3G G30C G70U | 0.35 |
| A3G U26C C62G | 0.25 |
| A3U A13U G19U U51A U69C | 0.18 |
| A3G U54C A77G U78C | 0.82 |
| A3G G36U A56U A64G | 0.12 |
| A3G G24A U41C A45G U69A | 0.09 |
| A3G U43C U49A A65C U72A | 0.17 |
| A3G G10A U31C G33A U43A U66C | 0.08 |

| Variant | self-cleavage |
| --- | --- |
| A3G U31C G42A C62U | 0.3 |
| A3U A15U U41A U60C A65U | 0.2 |
| A3G U43A A45G U76A | 1.05 |
| A3G G33A A64U U72C U80C | 0.08 |
| A3U A13U U25C G46A A64G | 0.13 |
| A3U A18U U25C U41C | 0.57 |
| A3G U26C A45U | 0.54 |
| A3G G10A U54C | 0.1 |
| A3G G24A U41A A57G | 0.28 |
| A3G U43C A56G A65G U80C | 0.25 |
| A3G G55C A64G | 0.58 |
| A3G U66G A75G | 0.46 |
| A3G U69C A77G | 0.62 |
| A3U A18G U48G A57G U72C | 0.27 |
| A3G U26C C32G A47G U58C | 0.14 |
| A3G G19A U48C | 0.43 |
| A3G U26A G30A A64G | 0.3 |
| A3G U51A U72G | 0.8 |
| A3G U51A U72C | 1.19 |
| A3G U25C U51C C79G | 0.12 |
| A3G U25A U26A C34U C44U | 0.29 |
| A3U A5G A45U U76C | 0.22 |
| A3G U25C U41A U43C A45U U67A | 0.14 |
